# Publication PMC12040169 (PLOS Biology, 2025)
# The list shows a part of the results.
# Tested on: T1, C. trachomatis L2/434/Bu expressing GFP (CTL2-GFP)
# T1 construct: L2/434/Bu GFP intracellular growth in HeLa cells
# Parameters: species or system HeLa; C. trachomatis total inclusion area by high-content imaging, normalised to DMSO
# Conditions: total inclusion area; 28.5 h, 10 µM; inhibitor
# In short: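 Post-fluorescence-read fixation, DNA staining with Hoechst and high-content imaging; GFP inclusion area and number per well, and nuclei counts, used as proxies for bacterial growth and host viability.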
row,Compound,% of control remaining
1,CCOC(=O)c1cnc2c(C)cc(Cl)cc2c1N1CCN(Cc2ccccc2)CC1 [CBK265975],72.46
2,CC(C)(C)c1ccccc1[S+]([O-])c1cc2c(N3CCNCC3)nccc2s1 (stereo not drawn) [CBK200018C],69.2933
3,OCCOc1ccccc1-c1nnco1 [CBK001972],78.4114
4,Cc1ccccc1CC(=O)N1CCCC1c1n[nH]cc1-c1ccncc1 (stereo not drawn) [CBK283431],115.392
5,COc1ccccc1C1CC(c2ccccc2)=NN1C(=O)CCC(=O)O (stereo not drawn) [CBK287088],95.5875
6,O=C(Cc1ncc(C(F)(F)F)cc1Cl)NO [CBK007437],65.8571
7,O=C(O)C1CCN(Cc2ccc(Cl)cc2)CC1 [CBK286895],81.3085
8,O=C(CCn1ccc2ccc(F)cc21)NC[C@H]1CC[C@H](C(=O)O)CC1 [CBK286666],34.9983
9,CCCNC(=O)Cn1nc(-c2cc3c(s2)CCC3)oc1=O [CBK284713],92.4506
10,COc1ccc(CC(=O)NNC(=O)c2ccc(C(C)(C)C)cc2)cc1 [CBK261700],96.9357
11,Nc1ncc(-c2ccccc2)nc1NCc1cccnc1 [CBK063452],72.2304
12,CCCC(=O)c1ccc(S(=O)(=O)N2CCCN(Cc3c[nH]nc3-c3ccc(F)cc3)CC2)cc1 [CBK062911],89.8601
13,O=C(NCc1ccc2c(c1)OCO2)C1(c2ccccc2)CCCC1 [CBK149530],102.731
14,COc1cccc2c3c([nH]c12)C1(CCCN(CCc2ccc(F)cc2)C1)NCC3 (stereo not drawn) [CBK039251],106.866
15,Cc1ccc(C(CC(=O)O)NC(=O)c2ccc(C)c(S(=O)(=O)N3CCCCC3)c2)cc1 (stereo not drawn) [CBK297095],106.037
16,CN1C2CCC1CC(OC(=O)CCN1CCCC1)C2 (stereo not drawn) [CBK261466],111.966
17,CN(CCCN1CCCCC1)C(=O)C1Cc2cc(Cl)ccc2O1 (stereo not drawn) [CBK282162],92.3311
18,O=C(NCCN1CCOCC1)c1cccc(S(=O)(=O)N2CCCCCC2)c1 [CBK266668],119.079
19,Cc1cccn2c(CN(C)C(C)C(N)=O)c(C(=O)N3CCOCC3)nc12 (stereo not drawn) [CBK306592],69.7142
20,COc1ccc(C(=O)Nn2c(SCC(=O)c3ccc(F)cc3)nc3ccccc3c2=O)cc1 [CBK266688],79.3204
21,OCc1ccccc1CN1CCOCC1 [CBK264388C],113.005
22,O=[N+]([O-])c1cc([N+](=O)[O-])c(Nc2ccncc2)c([N+](=O)[O-])c1Nc1ccncc1 [CBK278276],88.6969
23,O=C(C1CCCO1)N1CCCCCC1c1cc(-c2cccs2)on1 (stereo not drawn) [CBK284340],84.9094
24,CCCCNCCn1cnc2c(N)ncnc21 [CBK057447],89.2064
25,O=C1c2ccccc2C(=O)N1CCCN1CCN(CCCN2C(=O)c3ccccc3C2=O)CC1 [CBK260963],94.1271
26,O=C(O)c1ccc(/C=N/N2CCN(Cc3ccccc3)CC2)cc1 [CBK265344],76.6819

row,Compound,% of control remaining
1,Clc1cccc(-c2cncc(NCC3CCOCC3)n2)c1 [CBK037237],133.855
2,CC(Oc1ccc(Cl)cc1Cl)C(=O)Nc1ccc(OCC(=O)O)cc1 (stereo not drawn) [CBK266542],123.192
3,FC(F)(F)c1cccnc1OCCCc1ccncc1 [CBK115782],87.3713
4,CC(=O)Nc1cccc(-n2nnnc2SC2CCCC2)c1 [CBK305996],18.6005
5,O=S(=O)(N1CCCCCC1)N1CCN(S(=O)(=O)N2CCCCC2)CC1 [CBK269001],89.7976
6,CCC1c2ccsc2CCN1CC(O)COCc1ccco1 (stereo not drawn) [CBK303992],83.6304
7,CN(c1ccccc1)S(=O)(=O)c1cccc(NC(=O)Cc2csc(-c3ccco3)n2)c1 [CBK297792],106.941
8,Cc1cccc(-c2n[nH]c(=S)n2CCC(=O)Nc2ccc(N3CCCC3=O)c(C)c2)c1 [CBK296733],112.031
9,CC(=O)Nc1nc(OCCOc2ccccc2)cnc1-c1cnn(C)c1 [CBK145425],95.4755
10,CN1C(=O)COc2ccccc2C/C=C/C[C@H]2CNCC[C@H]21 [CBK292076],67.885
11,CCSc1ncc(Cl)c(C(=O)N(Cc2cccc(Br)c2)C2CCS(=O)(=O)C2)n1 (stereo not drawn) [CBK268969],91.4779
12,CC(C)CCCC(=O)n1c(=O)n(CCc2c[nH]c3ccccc23)c2ccccc21 [CBK106513],86.6272
13,Cc1nn(C)c(N2CCNCC2)c1NC(=O)c1cccs1 [CBK050303T],49.0255
14,COCc1cccc(-c2ncc(OCC3COc4ccccc4O3)nc2N)c1 (stereo not drawn) [CBK145113],73.1381
15,Cc1ccc(S(=O)(=O)NC(C)(C)CSc2nncn2C)cc1 [CBK266366],112.274
16,Cc1ccnc2nc(C(=O)OC(C)C(=O)NC3CC3)nn12 (stereo not drawn) [CBK304998],107.292
17,c1ccc(OCc2nc3c4c(-c5ccccc5)c(-c5ccccc5)oc4ncn3n2)cc1 [CBK262939],68.6763
18,Cc1cc(C)cc(N(CC(=O)O)S(C)(=O)=O)c1 [CBK263775],85.1807
19,Cc1nn(Cc2ccccc2)c(C)c1C(=O)N(C)C [CBK015942],40.3202
20,Cc1c(S(=O)(=O)NCc2ccc(C(F)(F)F)c(F)c2)cnn1-c1ccccc1 [CBK062115],120.454
21,O=C(COc1ccccc1)NC(=S)Nc1cccc(-c2nc3ccccc3s2)c1 [CBK264360],113.434
22,CN1[C@@H](CCC(=O)N2CCOCC2)CNC(=O)[C@@H]2[C@H]1CCN2C1CCCCC1 [CBK289032],94.5613
23,Cc1cc(C)nc(N/C(=N/C(=O)Cc2ccccc2)N2CCC(C(N)=O)CC2)n1 [CBK263889],96.5395
24,Cc1ccc(CNC(=O)OCCN2CCN(C)CC2)n1C [CBK200287],93.8554
25,CC(C)(C)c1ccc(-c2cnc(N)c3ncccc23)cc1 [CBK067589],96.1862
